# Results taken from PubChem BioAssay (NCATS).
# “And” between values parts separate entries of the source, which are not always exact repeats. Identical values can stand only once. Inconclusive results, whose numbers are uncertain, are shown with a selection of clear calls. Potencies of inconclusive entries are doubtful fits and often do not repeat. Some structures have more than one record in an assay (separate samples or runs), and their calls can disagree. The source made the active and inactive calls. Calls come from the whole dose curve; as a rule, active = well fitted curve in the direction sought with a large enough effect; inconclusive = small, poorly fitted or top-dose-only effect, or another doubt; inactive = no such curve, though single readings can be large; an effect the other way counts as inactive or inconclusive.
# Assays:
# [1] = molecular target: Glutathione peroxidase 1 (Homo sapiens) (UniProt P07203); experiment: Primary qHTS Assay for Inhibitors of Recombinant Selenoprotein Glutathione Peroxidase 1 (GPX1) (AID 1845191); details: activity, negative = inhibition: at 48.8 µM (top of the series); note: nearly all actives have a fitted effect of over 65% in size
# How it was run: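 Recombinant GPX1 (10 nM final) was preincubated with compound for 30 min at room temperature, then reacted with 1 mM GSH, 0.5 mM CHP, 0.5 mM NADPH and 100 nM glutathione reductase; NADPH fluorescence (340/450 nm) was read at 0 and 15 min.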
# [2] = Quantitative High-Throughput drug screen in 47 multiple myeloma cell lines against the NCATS MIPE library collection: Delta47_JCRB cell viability assay (AID 1918925; note: nearly all actives have a fitted effect of over 45% in size); details: Delta47 myeloma viability, CellTiter-Glo ATP, 48 h; viability (% of DMSO): at 45.8 µM (top of the series) unless noted
# How it was run: (§1)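 Viability readout: CellTiter-Glo luminescence following 5 min room-temperature incubation with reagent. Prior exposure: 48 h, 37C, humidified 5% CO2, 500 cells per well.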
# [3] = Quantitative High-Throughput drug screen in 47 multiple myeloma cell lines against the NCATS MIPE library collection: EJM_DSMZ cell viability assay (AID 1918926; note: nearly all actives have a fitted effect of over 30% in size;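 for viability, % of control: 100% = DMSO-only wells and 0% = media-only wells without cells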); details: EJM myeloma cell viability, CellTiter-Glo ATP, 48 h; viability, % of control: at 45.8 µM (top of the series)
# How it was run: as §1
# [4] = Quantitative High-Throughput drug screen in 47 multiple myeloma cell lines against the NCATS MIPE library collection: ARP1_JJKsccF8 cell viability assay (AID 1918928; note: nearly all actives have a fitted effect of over 40% in size); details: ARP1 myeloma cells viability, CellTiter-Glo ATP, 48 h; viability: at 45.8 µM (top of the series)
# How it was run: (§2)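 Myeloma cells, 500 per well, were exposed to MIPE 4.0 drugs by pin transfer for 48 h at 37 °C, 5% CO2. Viability was read as ATP luminescence with CellTiter-Glo, normalised to DMSO-only (100%) and medium-only (0%) wells.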
# [5] = Quantitative High-Throughput drug screen in 47 multiple myeloma cell lines against the NCATS MIPE library collection: ARD_JJKsccE7 cell viability assay (AID 1918929)
# How it was run: as §1
# [6] = Quantitative High-Throughput drug screen in 47 multiple myeloma cell lines against the NCATS MIPE library collection: Karpas620_DSMZ cell viability assay (AID 1918959); note: nearly all actives have a fitted effect of over 30% in size
# How it was run: as §1
# [7] = Quantitative High-Throughput drug screen in 47 multiple myeloma cell lines against the NCATS MIPE library collection: Karpas417_ECACC cell viability assay (AID 1918961); details: Karpas417 myeloma viability, CellTiter-Glo ATP luminescence, 48 h; viability (% of DMSO): at 45.8 µM (top of the series) unless noted;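 for viability (% of DMSO): 100% = DMSO only wells and 0% = media only wells without cells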
# How it was run: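 Approved and investigational drugs from MIPE 4.0 were added by pin tool to 500 cells per well. After 48 hours at 37C, ATP-based CellTiter-Glo luminescence indicated remaining viability.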
# [8] = Quantitative High-Throughput drug screen in 47 multiple myeloma cell lines against the NCATS MIPE library collection: KHM11_PLB cell viability assay (AID 1918962); details: KHM11 myeloma cell viability, CellTiter-Glo ATP luminescence, 48 h; viability, % of DMSO control: at 45.8 µM (top of the series); note: nearly all actives have a fitted effect of over 35% in size;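 for viability, % of DMSO control: 0% = media only wells and 100% = DMSO treated cells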
# How it was run: as §1
# [9] = Quantitative High-Throughput drug screen in 47 multiple myeloma cell lines against the NCATS MIPE library collection: FR4_PLB cell viability assay (AID 1918924; note: nearly all actives have a fitted effect of over 35% in size;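 for viability (% of DMSO control): 100% = DMSO-treated cells and 0% = wells with media only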); details: FR4_PLB myeloma cells viability, CellTiter-Glo ATP, 48 h; viability (% of DMSO control): at 45.8 µM (top of the series)
# How it was run: as §1
# [10] = Primary fluorescence-based thiol-reactive (MSTI) qHTS assay for identification of artifact compounds. (AID 1845221);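 note: thiol-reactive compounds lower the probe fluorescence signal; nearly all actives have a fitted effect of over 65% in size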
# How it was run: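 Reactivity toward the thiol probe MSTI (4 uM) is scored by fluorescence at Ex/Em 525/598 nm after 1 h at room temperature. Acetyl-MSTI and MSTI define the activity scale.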
# [11] = Quantitative High-Throughput drug screen in 47 multiple myeloma cell lines against the NCATS MIPE library collection: KMM1_JCRB cell viability assay (AID 1918960); details: KMM1 myeloma viability, CellTiter-Glo ATP luminescence, 48 h; viability (% of DMSO): at 45.8 µM (top of the series); note: nearly all actives have a fitted effect of over 30% in size
# How it was run: as §2
# [12] = molecular target: Phospholipid hydroperoxide glutathione peroxidase GPX4 (Homo sapiens) (UniProt P36969); experiment: Primary qHTS Assay for Inhibitors of Recombinant Selenoprotein Glutathione Peroxidase 4 (GPX4) (AID 1845192); note: nearly all actives have a fitted effect of over 65% in size
# How it was run: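 GR-coupled readout: 100 nM GR, 1 mM GSH, 0.5 mM NADPH; NADPH fluorescence (ex 340/em 450 nm) read at t=0 and after 15 min RT. GPX4 200 nM, preincubated 30 min with compound; substrate 0.5 mM CHP.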
# [13] = Quantitative High-Throughput drug screen in 47 multiple myeloma cell lines against the NCATS MIPE library collection: AMO1_DSMZ cell viability assay (AID 1918927; note: nearly all actives have a fitted effect of over 30% in size;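 for viability, % of DMSO: 100% = DMSO only wells and 0% = cell-free media only wells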)
# How it was run: as §1
# [14] = Primary redox qHTS assay for identification of artifact compounds. (AID 1845223)
# How it was run: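 Amplex Red (25 uM) and HRP (250 mU/mL) in HBSS, with compounds for 15 min, then 250 uM DTT for 30 min, room temperature, dark. Fluorescence 525/598 nm read; normalized to DMSO and 10 uM DA3003; Hill fit.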
# Potency is the fitted concentration of half-maximal effect; tags give direction and shape of the fitted curve.
# Chain of UniProt P36969 (P36969 whole entry, looked up): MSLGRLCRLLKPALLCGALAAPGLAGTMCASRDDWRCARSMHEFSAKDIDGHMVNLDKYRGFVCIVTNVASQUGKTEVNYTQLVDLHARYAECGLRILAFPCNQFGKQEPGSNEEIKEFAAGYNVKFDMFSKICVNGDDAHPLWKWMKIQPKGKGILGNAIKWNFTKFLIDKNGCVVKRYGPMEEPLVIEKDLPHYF
# Chain of UniProt P07203 (P07203 whole entry, looked up): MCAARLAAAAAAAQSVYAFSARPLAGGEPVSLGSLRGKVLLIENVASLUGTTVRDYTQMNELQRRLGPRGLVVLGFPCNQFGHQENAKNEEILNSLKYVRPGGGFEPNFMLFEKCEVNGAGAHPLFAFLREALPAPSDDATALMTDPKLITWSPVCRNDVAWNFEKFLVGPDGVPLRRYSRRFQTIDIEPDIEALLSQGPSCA
compound,measurement,setting,value
C[C@H]1c2cccc(O)c2C(O)=C2C(=O)[C@]3(O)C(O)=C(C(N)=O)C(=O)[C@@H](N(C)C)[C@@H]3[C@@H](O)[C@@H]21,Potency,[1],"inconclusive: 25.1 µM [inhibitor, single point] and inconclusive: 23 µM [inhibitor, partial curve, poor fit]"
same,Potency,[2],active: 23.5 µM
same,Potency,[3],"inconclusive: 37.2 µM [cytotoxic, single point]"
same,Potency,[4],"inconclusive: 37.2 µM [cytotoxic, single point]"
same,Potency,[5],"inconclusive: 11.8 µM [rising, single point]"
same,Potency,[6],"inconclusive: 37.2 µM [cytotoxic, single point]"
same,Potency,[7],"inconclusive: 0.0118 µM [rising, full curve, poor fit]"
same,Potency,[8],"inconclusive: 29.6 µM [cytotoxic, single point]"
Cc1cc(O)c2c(c1)C(=O)c1cccc(O)c1C2=O,Potency,[1],active: 8.17 µM
same,Potency,[9],inactive
same,Potency,[2],inactive
same,Potency,[3],inactive
same,Potency,[4],"inconclusive: 0.0026 µM [cytotoxic, full curve, poor fit]"
same,viability (% of DMSO),[7],active: 136%
same,Potency,[8],"inconclusive: 0.0118 µM [cytotoxic, full curve, poor fit]"
C[C@@]1(C(=O)Nc2ccc(F)nc2)CCCN1c1nc(Nc2cc(C3CC3)[nH]n2)c2cccn2n1,Potency,[1],"inconclusive: 28.6 µM [inhibitor, single point]"
same,Potency,[10],"inconclusive: 1.06 µM [inhibitor, full curve, poor fit]"
same,Potency,[3],"inconclusive: 0.833 µM [cytotoxic, partial curve, poor fit]"
same,Potency,[4],"inconclusive: 5.26 µM [cytotoxic, partial curve]"
same,Potency,[5],active: 0.001 µM
same,Potency,[11],"inconclusive: 0.132 µM [cytotoxic, full curve]"
same,Potency,[8],"inconclusive: 14.8 µM [cytotoxic, partial curve, poor fit]"
COc1cc2c(cc1Cc1cccc(Cl)c1F)c(=O)c(C(=O)O)cn2[C@H](CO)C(C)C,Potency,[1],"inconclusive: 22.7 µM [inhibitor, partial curve, poor fit]"
same,Potency,[12],"inconclusive: 32.1 µM [inhibitor, single point] and active: 11.2 µM"
same,Potency,[9],active: 20.9 µM
same,Potency,[13],"inconclusive: 37.2 µM [cytotoxic, single point]"
same,Potency,[5],"inconclusive: 37.2 µM [cytotoxic, single point]"
same,Potency,[6],"inconclusive: 37.2 µM [cytotoxic, single point]"
same,Potency,[11],"inconclusive: 29.6 µM [cytotoxic, single point]"
same,Potency,[7],"inconclusive: 20.9 µM [cytotoxic, partial curve, poor fit]"
same,Potency,[8],"inconclusive: 33.2 µM [cytotoxic, single point]"
COC1=C(OC)C(=O)C(CCCCCCCCCCO)=C(C)C1=O,Potency,[1],active: 7.28 µM
same,Potency,[9],"inconclusive: 37.2 µM [cytotoxic, single point]"
same,Potency,[8],active: 26.4 µM
CC1(C)CCC(CN2CCN(c3ccc(C(=O)NS(=O)(=O)c4ccc(NCC5CCOCC5)c([N+](=O)[O-])c4)c(Oc4cnc5[nH]ccc5c4)c3)CC2)=C(c2ccc(Cl)cc2)C1,Potency,[1],active: 6.4 µM
same,Potency,[14],inactive
same,Potency,[9],active: 20.9 µM
same,Potency,[2],"inconclusive: 20.9 µM [cytotoxic, single point]"
same,Potency,[5],"inconclusive: 11.8 µM [cytotoxic, single point]"
same,Potency,[7],"inconclusive: 7.43 µM [cytotoxic, partial curve, poor fit]"
same,Potency,[8],"inconclusive: 0.132 µM [cytotoxic, full curve, poor fit]"
CC(C)(C)c1nc(-c2cccc(NS(=O)(=O)c3c(F)cccc3F)c2F)c(-c2ccnc(N)n2)s1,Potency,[1],"inconclusive: 18.3 µM [inhibitor, partial curve, poor fit]"
same,Potency,[14],"inconclusive: 2.99 µM [activator, full curve, poor fit]"
same,Potency,[9],"inconclusive: 0.469 µM [cytotoxic, full curve, poor fit]"
same,Potency,[4],"inconclusive: 14.8 µM [cytotoxic, partial curve, poor fit]"
same,Potency,[5],active: 18.7 µM
same,Potency,[7],active: 5.9 µM
CC(C)(C)NCC(O)c1ccc(O)c(CO)c1 (stereo not given),Potency,[1],"inconclusive: 23 µM [inhibitor, single point]"
same,Potency,[9],inactive
same,Potency,[13],inactive
same,Potency,[4],"inconclusive: 33.2 µM [cytotoxic, single point]"
same,Potency,[7],"inconclusive: 0.132 µM [cytotoxic, full curve, poor fit]"
same,Potency,[8],inactive
O=C(C1CC1)N1CC[C@@H](Cn2c(-c3ccc(-c4ccc5occc5c4)cc3)nc3cnccc32)C1,Potency,[1],"inconclusive: 29 µM [inhibitor, single point]"
same,Potency,[12],active: 22.7 µM
same,Potency,[9],"inconclusive: 23.5 µM [cytotoxic, single point]"
same,Potency,[2],"inconclusive: 37.2 µM [cytotoxic, single point]"
same,Potency,[3],"inconclusive: 20.9 µM [cytotoxic, single point]"
same,Potency,[13],"inconclusive: 20.9 µM [cytotoxic, partial curve, poor fit]"
same,Potency,[4],"inconclusive: 16.6 µM [cytotoxic, partial curve]"
same,Potency,[5],"inconclusive: 37.2 µM [cytotoxic, single point]"
same,Potency,[6],"inconclusive: 37.2 µM [cytotoxic, partial curve, poor fit]"
same,Potency,[11],"inconclusive: 4.18 µM [cytotoxic, partial curve]"
same,viability (% of DMSO),[7],inconclusive: 27.5% [cytotoxic]
same,Potency,[8],inactive
